# According to the supplement of paper PMC8728848:
# The other results are listed elsewhere or left out.
# Experiments:
# Assay in all cases: glycan array binding signal (z-score within array); higher = stronger binding
# Conditions in all cases: glycan notation: IUPAC condensed, linker removed
# [1] = target: Neu5Ac(a2-3)Gal6S(b1-4)[Fuc(a1-3)]GlcNAc
# Summary of the method: (§1)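 The binding signal is a Z-score computed within each array and averaged over linkers. Arrays of the same protein sequence at different concentrations or buffers were also averaged together. Data originate from 3228 arrays in the Consortium for Functional Glycomics database, kept only where the protein sequence was available.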
# Neu5Ac(a2-3)GalNAc = target: Neu5Ac(a2-3)GalNAc
# Summary of the method: as §1
# [2] = target: Neu5Ac(a2-3)GalNAc(b1-4)GlcNAc
# Summary of the method: as §1
# [3] = target: Neu5Ac(a2-3)[GalNAc(b1-4)]Gal(b1-4)Glc
# Summary of the method: as §1
# [4] = target: Neu5Ac(a2-3)[GalNAc(b1-4)]Gal(b1-4)GlcNAc
# Summary of the method: as §1
# [5] = target: Neu5Ac(a2-3)[GalNAc(b1-4)]Gal(b1-4)GlcNAc(b1-3)GalNAc
# Summary of the method: as §1
# [6] = target: Neu5Ac(a2-3)[Neu5Ac(a2-6)]GalNAc
# Summary of the method: as §1
# Neu5Ac(a2-6)Gal = target: Neu5Ac(a2-6)Gal
# Summary of the method: as §1
# Neu5Ac(a2-6)Gal(b1-4)Glc = target: Neu5Ac(a2-6)Gal(b1-4)Glc
# Summary of the method: as §1
# [7] = target: Neu5Ac(a2-6)Gal(b1-4)GlcNAc
# Summary of the method: as §1
# [8] = target: Neu5Ac(a2-6)Gal(b1-4)GlcNAc(b1-2)Man(a1-3)Man(b1-4)GlcNAc(b1-4)GlcNAc
# Summary of the method: as §1
# [9] = target: Neu5Ac(a2-6)Gal(b1-4)GlcNAc(b1-2)Man(a1-3)[Gal(b1-4)GlcNAc(b1-2)Man(a1-6)]Man(b1-4)GlcNAc(b1-4)GlcNAc
# Summary of the method: as §1
# [10] = target: Neu5Ac(a2-6)Gal(b1-4)GlcNAc(b1-2)Man(a1-3)[GlcNAc(b1-2)Man(a1-6)]Man(b1-4)GlcNAc(b1-4)GlcNAc
# Summary of the method: as §1
# [11] = target: Neu5Ac(a2-6)Gal(b1-4)GlcNAc(b1-2)Man(a1-3)[GlcNAc(b1-2)Man(b1-4)GlcNAc(b1-2)Man(a1-6)]Man(b1-4)GlcNAc(b1-4)GlcNAc
# Summary of the method: as §1
# [12] = target: Neu5Ac(a2-6)Gal(b1-4)GlcNAc(b1-2)Man(a1-3)[Man(a1-6)]Man(b1-4)GlcNAc(b1-4)GlcNAc
# Summary of the method: as §1
# [13] = target: Neu5Ac(a2-6)Gal(b1-4)GlcNAc(b1-2)Man(a1-3)[Neu5Ac(a2-6)Gal(b1-4)GlcNAc(b1-2)Man(a1-6)]Man(b1-4)GlcNAc(b1-4)GlcNAc
# Summary of the method: as §1
# [14] = target: Neu5Ac(a2-6)Gal(b1-4)GlcNAc(b1-2)Man(a1-6)Man(b1-4)GlcNAc(b1-4)GlcNAc
# Summary of the method: as §1
# [15] = target: Neu5Ac(a2-6)Gal(b1-4)GlcNAc(b1-2)Man(a1-6)[Gal(b1-4)GlcNAc(b1-2)Man(a1-3)]Man(b1-4)GlcNAc(b1-4)GlcNAc
# Summary of the method: as §1
# [16] = target: Neu5Ac(a2-6)Gal(b1-4)GlcNAc(b1-2)Man(a1-6)[GlcNAc(b1-2)Man(a1-3)]Man(b1-4)GlcNAc(b1-4)GlcNAc
# Summary of the method: as §1
# [17] = target: Neu5Ac(a2-6)Gal(b1-4)GlcNAc(b1-2)Man(a1-6)[Man(a1-3)]Man(b1-4)GlcNAc(b1-4)GlcNAc
# Summary of the method: as §1
# [18] = target: Neu5Ac(a2-6)Gal(b1-4)GlcNAc(b1-3)Gal(b1-3)GlcNAc
# Summary of the method: as §1
# [19] = target: Neu5Ac(a2-6)Gal(b1-4)GlcNAc(b1-3)Gal(b1-4)GlcNAc
# Summary of the method: as §1
# [20] = target: Neu5Ac(a2-6)Gal(b1-4)GlcNAc(b1-3)Gal(b1-4)GlcNAc(b1-3)Gal(b1-4)GlcNAc
# Summary of the method: as §1
# [21] = target: Neu5Ac(a2-6)Gal(b1-4)GlcNAc(b1-3)Gal(b1-4)[Fuc(a1-3)]GlcNAc(b1-3)Gal(b1-4)[Fuc(a1-3)]GlcNAc
# Summary of the method: as §1
# [22] = target: Neu5Ac(a2-6)Gal(b1-4)GlcNAc(b1-3)GalNAc
# Summary of the method: as §1
# [23] = target: Neu5Ac(a2-6)Gal(b1-4)GlcNAc6S
# Summary of the method: as §1
# Neu5Ac(a2-6)GalNAc = target: Neu5Ac(a2-6)GalNAc
# Summary of the method: as §1
# [24] = target: Neu5Ac(a2-6)GalNAc(b1-4)GlcNAc
# Summary of the method: as §1
# [25] = target: Neu5Ac(a2-6)GlcNAc(b1-4)GlcNAc
# Summary of the method: as §1
# [26] = target: Neu5Ac(a2-6)GlcNAc(b1-4)GlcNAc(b1-4)GlcNAc
# Summary of the method: as §1
# Neu5Ac(a2-8)Neu5Ac = target: Neu5Ac(a2-8)Neu5Ac
# Summary of the method: as §1
# [27] = target: Neu5Ac(a2-8)Neu5Ac(a2-3)Gal(b1-4)Glc
# Summary of the method: as §1
# [28] = target: Neu5Ac(a2-8)Neu5Ac(a2-3)[GalNAc(b1-4)]Gal(b1-4)Glc
# Summary of the method: as §1
# [29] = target: Neu5Ac(a2-8)Neu5Ac(a2-8)Neu5Ac
# Summary of the method: as §1
# [30] = target: Neu5Ac(a2-8)Neu5Ac(a2-8)Neu5Ac(a2-3)Gal(b1-4)Glc
# Summary of the method: as §1
# [31] = target: Neu5Ac(a2-8)Neu5Ac(a2-8)Neu5Ac(a2-3)[GalNAc(b1-4)]Gal(b1-4)Glc
# Summary of the method: as §1
# [32] = target: Neu5Ac(a2-8)Neu5Ac(a2-8)Neu5Ac(a2-8)Neu5Ac(a2-3)[GalNAc(b1-4)]Gal(b1-4)Glc
# Summary of the method: as §1
# [33] = target: Neu5Ac(b2-6)Gal(b1-4)GlcNAc
# Summary of the method: as §1
# Neu5Ac(b2-6)GalNAc = target: Neu5Ac(b2-6)GalNAc
# Summary of the method: as §1
# [34] = target: Neu5Ac9Ac(a2-3)Gal(b1-3)GlcNAc
# Summary of the method: as §1
# [35] = target: Neu5Ac9Ac(a2-3)Gal(b1-4)GlcNAc
# Summary of the method: as §1
# [36] = target: Neu5Ac9Ac(a2-6)Gal(b1-4)GlcNAc
# Summary of the method: as §1
# [37] = target: Neu5Gc(a2-3)Gal(b1-3)GlcNAc
# Summary of the method: as §1
# [38] = target: Neu5Gc(a2-3)Gal(b1-3)[Fuc(a1-4)]GlcNAc
# Summary of the method: as §1
# Neu5Gc(a2-3)Gal(b1-4)Glc = target: Neu5Gc(a2-3)Gal(b1-4)Glc
# Summary of the method: as §1
# [39] = target: Neu5Gc(a2-3)Gal(b1-4)GlcNAc
# Summary of the method: as §1
# [40] = target: Neu5Gc(a2-3)Gal(b1-4)[Fuc(a1-3)]GlcNAc
# Summary of the method: as §1
# [41] = target: Neu5Gc(a2-6)Gal(b1-4)GlcNAc
# Summary of the method: as §1
# Neu5Gc(a2-6)GalNAc = target: Neu5Gc(a2-6)GalNAc
# Summary of the method: as §1
# [42] = target: Neu5Gc(b2-6)Gal(b1-4)GlcNAc
# Summary of the method: as §1
binder,measurement,setting,value
"SLP (Clostridium difficile), Q183M8 (protein) MATTGTQGYTVVKNDWKKAVKQLQDGLKDNSIGKITVSFNDGVVGEVAPKSANKKADRDAAAEKLYNLVNTQLDKLGDGDYVDFSVDYNLENKIITNQADAEAIVTKLNSLNEKTLIDIATKDTFGMVSKTQDSEGKNVAATKALKVKDVATFGLKSGGSEDTGYVVEMKAGAVEDKYGKVGDSTAGIAINLPSTGLEYAGKGTTIDFNKTLKVDVTGGSTPSAVAVSGFVTKDDTDLAKSGTINVRVINAKEESIDIDASSYTSAENLAKRYVFDPDEISEAYKAIVALQNDGIESNLVQLVNGKYQVIFYPEGKRLETKSLEHHHHHH",glycan array binding signal (z-score),[1],-0.192
same,glycan array binding signal (z-score),Neu5Ac(a2-3)GalNAc,-0.183
same,glycan array binding signal (z-score),[2],-0.183
same,glycan array binding signal (z-score),[3],-0.203
same,glycan array binding signal (z-score),[4],-0.195
same,glycan array binding signal (z-score),[5],-0.106
same,glycan array binding signal (z-score),[6],-0.181
same,glycan array binding signal (z-score),Neu5Ac(a2-6)Gal,-0.181
same,glycan array binding signal (z-score),Neu5Ac(a2-6)Gal(b1-4)Glc,-0.184
same,glycan array binding signal (z-score),[7],-0.183
same,glycan array binding signal (z-score),[8],-0.163
same,glycan array binding signal (z-score),[9],-0.203
same,glycan array binding signal (z-score),[10],0.044
same,glycan array binding signal (z-score),[11],-0.185
same,glycan array binding signal (z-score),[12],-0.199
same,glycan array binding signal (z-score),[13],-0.148
same,glycan array binding signal (z-score),[14],-0.195
same,glycan array binding signal (z-score),[15],-0.174
same,glycan array binding signal (z-score),[16],-0.182
same,glycan array binding signal (z-score),[17],-0.17
same,glycan array binding signal (z-score),[18],-0.201
same,glycan array binding signal (z-score),[19],-0.21
same,glycan array binding signal (z-score),[20],-0.187
same,glycan array binding signal (z-score),[21],-0.157
same,glycan array binding signal (z-score),[22],-0.094
same,glycan array binding signal (z-score),[23],-0.129
same,glycan array binding signal (z-score),Neu5Ac(a2-6)GalNAc,-0.177
same,glycan array binding signal (z-score),[24],-0.195
same,glycan array binding signal (z-score),[25],-0.212
same,glycan array binding signal (z-score),[26],-0.188
same,glycan array binding signal (z-score),Neu5Ac(a2-8)Neu5Ac,-0.184
same,glycan array binding signal (z-score),[27],-0.169
same,glycan array binding signal (z-score),[28],-0.156
same,glycan array binding signal (z-score),[29],-0.184
same,glycan array binding signal (z-score),[30],-0.154
same,glycan array binding signal (z-score),[31],-0.118
same,glycan array binding signal (z-score),[32],-0.197
same,glycan array binding signal (z-score),[33],-0.154
same,glycan array binding signal (z-score),Neu5Ac(b2-6)GalNAc,-0.167
same,glycan array binding signal (z-score),[34],-0.201
same,glycan array binding signal (z-score),[35],-0.188
same,glycan array binding signal (z-score),[36],-0.175
same,glycan array binding signal (z-score),[37],-0.148
same,glycan array binding signal (z-score),[38],-0.173
same,glycan array binding signal (z-score),Neu5Gc(a2-3)Gal(b1-4)Glc,-0.17
same,glycan array binding signal (z-score),[39],-0.204
same,glycan array binding signal (z-score),[40],-0.166
same,glycan array binding signal (z-score),[41],-0.189
same,glycan array binding signal (z-score),Neu5Gc(a2-6)GalNAc,-0.182
same,glycan array binding signal (z-score),[42],-0.172
